Source: a compilation of properties of binary mixtures (doi:10.1021/acs.jced.0c00987)
The densities may have been worked out from excess volumes.

Experiment: xn = mol fraction of the nth substance listed
Conditions: 100 kPa

CC[n+]1ccn(C)c1.O=S(=O)([O-])C(F)(F)F + OCC(O)CO
mass density [kg/m3]
Conditions	293.15 K	298.15 K	303.15 K	313.15 K
x1 = 0.002	–	1258	1255	1248
x1 = 0.004	1262	1258	1255	1249
x1 = 0.011	1264	1260	1257	1251
x1 = 0.018	1266	1262	1259	–
x2 = 0.199	–	1369	1365	1358
x2 = 0.299	1364	1360	1356	–
x2 = 0.401	1356	–	1347	1340
x2 = 0.499	1346	1342	1338	1330
x2 = 0.605	–	1330	1326	1318
x2 = 0.698	–	1314	1310	1303
x2 = 0.805	1303	1299	1295	1288
x2 = 0.899	1286	1282	1279	1271
x2 = 0.919	1281	1278	1274	1267
x2 = 0.962	–	1268	–	1258

CCOS(=O)(=O)[O-].CC[n+]1ccn(C)c1 + OCCO
mass density [kg/m3]
Conditions	293.15 K	298.15 K	303.15 K	313.15 K
x1 = 0.001	–	–	1105	1098.5
x1 = 0.003	1113	1109	–	–
x1 = 0.008	1116	1112	1109	–
x1 = 0.014	1118	1114	1111	1104
x2 = 0.304	1217	1213	1208	1208
x2 = 0.406	–	1208	1205	–
x2 = 0.506	1206	1202	1199	1192
x2 = 0.597	1196	–	1189	1182
x2 = 0.7	1182	1179	1175	1168
x2 = 0.792	1167	1163	–	1153
x2 = 0.851	1156	–	1148	1142
x2 = 0.899	1144	1141	1137	1130
x2 = 0.938	1134	1130	1126	–
x2 = 0.972	1124	1120	1116	1110

CC[n+]1ccn(C)c1.O=S(=O)([O-])C(F)(F)F + OCCO
mass density [kg/m3]
Conditions	293.15 K	298.15 K	303.15 K	313.15 K
x1 = 0.001	1114	–	1106	1100
x1 = 0.002	1115	1111	–	1101
x1 = 0.007	–	1115	1112	1105
x1 = 0.013	1123	1119	–	1109
x2 = 0.2	1362	1357	–	1345
x2 = 0.413	1330	1326	1321	1314
x2 = 0.497	1317	1313	1308	–
x2 = 0.587	1299	1295	1291	1283
x2 = 0.697	1268	1264	1260	1252
x2 = 0.808	1229	1225	1221	–
x2 = 0.863	1203	1199	1195	1187
x2 = 0.907	1179	1175	1171	1164
x2 = 0.944	1157	1153	1150	1143
x2 = 0.974	–	1131	1128	1121
